Assay results published in publication PMC11251733.
These are yes or no findings as the source states them, for the method shown. In cells and extracts the contact can be indirect. Some entries that bind do so weakly or less than the wild type.

Sequences of proteins named here, by UniProt entry; tags and fusion partners are left off. Residues count along the entry.
UniProt P35968, residues 20-1356: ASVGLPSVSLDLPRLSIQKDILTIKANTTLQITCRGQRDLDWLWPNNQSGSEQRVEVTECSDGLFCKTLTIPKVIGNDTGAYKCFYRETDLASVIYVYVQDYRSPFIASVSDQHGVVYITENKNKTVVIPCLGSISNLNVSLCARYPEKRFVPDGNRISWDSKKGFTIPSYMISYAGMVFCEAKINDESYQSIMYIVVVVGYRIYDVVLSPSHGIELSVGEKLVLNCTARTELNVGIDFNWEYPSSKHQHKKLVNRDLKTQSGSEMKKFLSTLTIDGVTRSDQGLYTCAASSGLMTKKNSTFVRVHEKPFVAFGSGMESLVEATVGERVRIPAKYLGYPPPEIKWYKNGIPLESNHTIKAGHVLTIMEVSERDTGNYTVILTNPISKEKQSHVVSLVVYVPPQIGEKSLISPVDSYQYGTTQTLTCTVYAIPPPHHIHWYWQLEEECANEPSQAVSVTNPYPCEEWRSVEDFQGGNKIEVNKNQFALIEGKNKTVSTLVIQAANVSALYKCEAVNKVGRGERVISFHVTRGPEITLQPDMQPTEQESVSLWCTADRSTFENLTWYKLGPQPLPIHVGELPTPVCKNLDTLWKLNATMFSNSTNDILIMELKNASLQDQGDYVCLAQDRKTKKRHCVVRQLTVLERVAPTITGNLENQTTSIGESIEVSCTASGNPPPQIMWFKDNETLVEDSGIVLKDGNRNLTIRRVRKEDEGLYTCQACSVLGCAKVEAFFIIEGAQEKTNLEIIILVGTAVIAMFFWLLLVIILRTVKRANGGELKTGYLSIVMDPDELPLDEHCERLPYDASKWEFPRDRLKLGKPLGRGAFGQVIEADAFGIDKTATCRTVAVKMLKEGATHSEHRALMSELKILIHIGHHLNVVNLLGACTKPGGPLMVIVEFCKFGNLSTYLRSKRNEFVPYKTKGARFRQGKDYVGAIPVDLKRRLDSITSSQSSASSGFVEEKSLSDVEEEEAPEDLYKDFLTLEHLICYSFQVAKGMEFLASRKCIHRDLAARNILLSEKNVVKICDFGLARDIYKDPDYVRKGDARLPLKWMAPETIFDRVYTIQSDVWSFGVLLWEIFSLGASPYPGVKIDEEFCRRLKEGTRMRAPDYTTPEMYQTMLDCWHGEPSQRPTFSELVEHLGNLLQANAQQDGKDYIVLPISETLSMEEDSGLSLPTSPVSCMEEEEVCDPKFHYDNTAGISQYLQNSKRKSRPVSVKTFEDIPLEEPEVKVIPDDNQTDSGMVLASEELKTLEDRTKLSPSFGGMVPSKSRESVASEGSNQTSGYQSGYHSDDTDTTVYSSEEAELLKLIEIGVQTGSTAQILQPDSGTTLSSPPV
UniProt Q9ULT8: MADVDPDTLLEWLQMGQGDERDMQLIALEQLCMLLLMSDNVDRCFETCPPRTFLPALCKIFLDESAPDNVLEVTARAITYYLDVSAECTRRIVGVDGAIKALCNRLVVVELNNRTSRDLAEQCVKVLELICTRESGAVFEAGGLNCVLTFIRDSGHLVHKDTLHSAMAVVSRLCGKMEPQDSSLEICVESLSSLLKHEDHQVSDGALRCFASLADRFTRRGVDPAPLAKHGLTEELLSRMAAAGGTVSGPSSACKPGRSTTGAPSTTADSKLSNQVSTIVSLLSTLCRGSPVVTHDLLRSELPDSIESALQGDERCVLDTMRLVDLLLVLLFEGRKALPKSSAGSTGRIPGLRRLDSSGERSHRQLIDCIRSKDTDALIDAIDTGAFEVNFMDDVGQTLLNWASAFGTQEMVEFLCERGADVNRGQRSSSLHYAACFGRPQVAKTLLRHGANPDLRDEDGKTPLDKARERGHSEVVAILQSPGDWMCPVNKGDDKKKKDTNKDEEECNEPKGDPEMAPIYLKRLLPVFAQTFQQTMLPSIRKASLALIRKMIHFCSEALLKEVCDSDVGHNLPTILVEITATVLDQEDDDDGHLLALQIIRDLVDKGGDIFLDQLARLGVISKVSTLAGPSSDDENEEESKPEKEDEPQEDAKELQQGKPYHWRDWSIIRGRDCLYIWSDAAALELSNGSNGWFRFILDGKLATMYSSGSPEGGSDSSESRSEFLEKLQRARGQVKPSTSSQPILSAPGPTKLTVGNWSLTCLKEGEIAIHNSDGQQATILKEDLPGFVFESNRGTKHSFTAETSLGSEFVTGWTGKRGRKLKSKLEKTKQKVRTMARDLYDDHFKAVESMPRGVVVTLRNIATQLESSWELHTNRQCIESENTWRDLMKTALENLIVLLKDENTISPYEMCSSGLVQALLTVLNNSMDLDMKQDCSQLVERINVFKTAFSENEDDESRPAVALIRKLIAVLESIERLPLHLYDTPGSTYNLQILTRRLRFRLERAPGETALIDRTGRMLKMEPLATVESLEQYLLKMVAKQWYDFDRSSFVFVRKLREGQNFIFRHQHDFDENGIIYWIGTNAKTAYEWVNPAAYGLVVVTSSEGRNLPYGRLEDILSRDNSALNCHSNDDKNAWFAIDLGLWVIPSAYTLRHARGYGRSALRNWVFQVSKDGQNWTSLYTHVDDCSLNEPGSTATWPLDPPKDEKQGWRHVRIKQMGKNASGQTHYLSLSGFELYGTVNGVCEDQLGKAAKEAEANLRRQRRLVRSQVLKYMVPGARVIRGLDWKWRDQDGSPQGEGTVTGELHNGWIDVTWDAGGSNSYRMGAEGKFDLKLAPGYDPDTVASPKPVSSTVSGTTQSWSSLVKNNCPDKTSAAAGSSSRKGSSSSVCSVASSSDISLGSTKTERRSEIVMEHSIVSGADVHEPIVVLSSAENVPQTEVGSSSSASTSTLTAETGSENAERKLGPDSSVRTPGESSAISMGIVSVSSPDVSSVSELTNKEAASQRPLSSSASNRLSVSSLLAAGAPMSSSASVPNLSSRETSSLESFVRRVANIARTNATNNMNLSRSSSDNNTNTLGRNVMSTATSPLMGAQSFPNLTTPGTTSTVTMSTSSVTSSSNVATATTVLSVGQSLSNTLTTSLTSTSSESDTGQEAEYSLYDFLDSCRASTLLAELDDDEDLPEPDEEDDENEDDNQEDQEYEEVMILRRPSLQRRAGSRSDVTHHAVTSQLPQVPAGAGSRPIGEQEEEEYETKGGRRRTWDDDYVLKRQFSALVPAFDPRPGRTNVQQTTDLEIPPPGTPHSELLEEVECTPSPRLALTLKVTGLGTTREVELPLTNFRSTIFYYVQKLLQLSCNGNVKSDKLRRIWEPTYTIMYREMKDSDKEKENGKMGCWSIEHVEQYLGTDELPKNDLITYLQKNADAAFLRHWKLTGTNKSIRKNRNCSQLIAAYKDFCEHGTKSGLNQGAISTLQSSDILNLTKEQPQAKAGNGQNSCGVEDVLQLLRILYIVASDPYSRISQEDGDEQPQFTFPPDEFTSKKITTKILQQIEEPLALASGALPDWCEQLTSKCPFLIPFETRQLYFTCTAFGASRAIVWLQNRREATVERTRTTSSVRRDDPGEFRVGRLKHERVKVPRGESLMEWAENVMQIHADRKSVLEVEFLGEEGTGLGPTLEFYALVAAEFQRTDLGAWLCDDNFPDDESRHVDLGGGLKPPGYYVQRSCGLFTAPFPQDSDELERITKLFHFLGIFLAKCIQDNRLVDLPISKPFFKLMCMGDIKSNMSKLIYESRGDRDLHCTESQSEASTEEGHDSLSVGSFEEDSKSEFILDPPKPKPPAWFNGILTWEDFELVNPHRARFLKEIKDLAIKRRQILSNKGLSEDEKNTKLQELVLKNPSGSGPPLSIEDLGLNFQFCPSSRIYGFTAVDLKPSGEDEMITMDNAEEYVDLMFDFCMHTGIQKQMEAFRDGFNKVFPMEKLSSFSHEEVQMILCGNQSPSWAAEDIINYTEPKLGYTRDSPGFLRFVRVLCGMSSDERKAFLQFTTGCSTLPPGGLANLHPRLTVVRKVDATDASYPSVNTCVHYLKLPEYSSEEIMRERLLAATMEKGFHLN
UniProt P62993: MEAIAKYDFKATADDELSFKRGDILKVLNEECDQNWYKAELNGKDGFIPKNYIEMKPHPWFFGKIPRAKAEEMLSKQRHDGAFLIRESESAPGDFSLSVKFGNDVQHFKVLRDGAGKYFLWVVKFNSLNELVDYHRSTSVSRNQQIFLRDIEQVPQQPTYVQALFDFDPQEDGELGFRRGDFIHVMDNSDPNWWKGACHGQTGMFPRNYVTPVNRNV
UniProt Q16665: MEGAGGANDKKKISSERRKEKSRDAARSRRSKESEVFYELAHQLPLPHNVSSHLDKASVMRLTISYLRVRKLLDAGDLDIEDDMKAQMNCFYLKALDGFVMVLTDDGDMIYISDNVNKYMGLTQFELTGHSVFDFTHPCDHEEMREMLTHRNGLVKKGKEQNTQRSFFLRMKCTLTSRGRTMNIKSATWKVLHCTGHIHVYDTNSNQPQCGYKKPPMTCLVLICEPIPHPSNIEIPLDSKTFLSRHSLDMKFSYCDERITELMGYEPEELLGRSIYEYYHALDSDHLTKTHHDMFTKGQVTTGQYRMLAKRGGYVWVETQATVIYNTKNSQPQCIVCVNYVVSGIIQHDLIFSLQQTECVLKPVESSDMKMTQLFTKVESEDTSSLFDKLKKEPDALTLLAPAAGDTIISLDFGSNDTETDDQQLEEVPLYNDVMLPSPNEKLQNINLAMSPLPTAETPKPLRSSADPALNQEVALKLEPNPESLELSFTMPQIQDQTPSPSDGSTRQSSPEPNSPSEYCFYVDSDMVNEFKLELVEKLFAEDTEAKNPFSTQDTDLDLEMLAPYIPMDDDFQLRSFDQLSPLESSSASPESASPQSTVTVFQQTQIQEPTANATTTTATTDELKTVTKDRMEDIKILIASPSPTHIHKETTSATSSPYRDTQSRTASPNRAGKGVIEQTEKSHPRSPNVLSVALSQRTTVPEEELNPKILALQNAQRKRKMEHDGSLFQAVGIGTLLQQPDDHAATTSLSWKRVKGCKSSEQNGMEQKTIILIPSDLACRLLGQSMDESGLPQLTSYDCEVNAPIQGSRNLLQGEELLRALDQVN
UniProt Q9GZT9: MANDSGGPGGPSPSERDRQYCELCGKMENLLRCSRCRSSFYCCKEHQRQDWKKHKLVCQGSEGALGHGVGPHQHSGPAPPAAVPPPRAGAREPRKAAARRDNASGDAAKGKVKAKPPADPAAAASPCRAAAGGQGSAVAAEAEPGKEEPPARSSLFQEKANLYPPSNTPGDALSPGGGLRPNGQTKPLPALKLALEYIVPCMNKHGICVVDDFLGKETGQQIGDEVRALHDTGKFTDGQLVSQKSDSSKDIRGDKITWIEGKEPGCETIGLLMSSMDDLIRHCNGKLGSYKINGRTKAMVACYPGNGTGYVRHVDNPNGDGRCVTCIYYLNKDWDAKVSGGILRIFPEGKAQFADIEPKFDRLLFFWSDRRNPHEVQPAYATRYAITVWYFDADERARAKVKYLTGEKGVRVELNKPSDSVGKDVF

How the values were obtained:
[1] = target: T1, exosomal GP73 (human (from HepG2 and MHCC-97H cells)) (UniProt Q8NBJ4); test: co-IP; lysates of HUVECs (treated with exosomes from HepG2 or MHCC-97H cells for 48 h, with GRB2 siRNA, recombinant VEGF, or stably expressing GP73-Δ1-55), 1x IP lysis buffer, antibodies with protein A/G magnetic beads, 6 h at 4 °C, immunoblotting
T1 sequence: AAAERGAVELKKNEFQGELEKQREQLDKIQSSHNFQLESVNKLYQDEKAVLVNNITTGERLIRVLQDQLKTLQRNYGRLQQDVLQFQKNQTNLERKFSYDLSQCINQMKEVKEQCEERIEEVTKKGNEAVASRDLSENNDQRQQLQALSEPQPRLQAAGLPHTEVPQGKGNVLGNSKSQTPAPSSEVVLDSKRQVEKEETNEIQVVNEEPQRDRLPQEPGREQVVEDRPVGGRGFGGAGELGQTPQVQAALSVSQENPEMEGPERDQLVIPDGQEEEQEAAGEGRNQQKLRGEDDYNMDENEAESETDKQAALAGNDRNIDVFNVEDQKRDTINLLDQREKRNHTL

[2] = target: VEGFR2 (human (endogenous in HUVEC)) (UniProt P35968); test: as above
[3] = target: HECTD1 (human (endogenous in HUVEC)) (UniProt Q9ULT8); test: as above
[4] = target: T2, Golgi protein 73 (GP73) (human (endogenous in MHCC-97H)) (UniProt Q8NBJ4); test: co-IP; lysates of HepG2 and MHCC-97H cells (GP73 overexpressed or silenced; with or without BFA 2.5 μg/ml for 12 h), 1x IP lysis buffer, antibodies with protein A/G magnetic beads, 6 h at 4 °C, immunoblotting
T2 sequence: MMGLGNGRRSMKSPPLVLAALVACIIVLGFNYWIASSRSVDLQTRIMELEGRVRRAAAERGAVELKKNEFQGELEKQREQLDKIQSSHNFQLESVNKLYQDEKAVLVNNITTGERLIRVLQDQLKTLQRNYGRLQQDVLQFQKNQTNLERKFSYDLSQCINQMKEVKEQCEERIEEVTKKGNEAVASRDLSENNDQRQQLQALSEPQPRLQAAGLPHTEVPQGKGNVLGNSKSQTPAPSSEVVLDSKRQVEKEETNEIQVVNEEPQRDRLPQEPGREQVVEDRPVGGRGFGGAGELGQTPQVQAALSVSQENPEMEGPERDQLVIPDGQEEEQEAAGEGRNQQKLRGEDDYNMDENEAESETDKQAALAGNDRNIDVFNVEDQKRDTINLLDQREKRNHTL

Substance: HECTD1 (from UniProt Q9ULT8 1-2610) (enzyme)
- binding [1]: binds

Substance: growth factor receptor-bound protein 2 (GRB2) (from UniProt P62993 1-217)
- binding [2]: binds
- binding [3]: binds

Substance: hypoxia-induced factor-1α (HIF-1α) (from UniProt Q16665 1-826)
- binding [4]: no binding

Substance: prolyl hydroxylase-2 (PHD-2) (from UniProt Q9GZT9 1-426) (enzyme)
- binding [4]: binds
